The campaign covered roughly 45,000 compounds. About 65 (0.1%) were called active. Calls come from the whole dose curve; as a rule, active = well fitted activation curve with a large enough effect; inconclusive = small, poorly fitted or top-dose-only effect; inactive = no such curve, though single readings can be large or run the other way. The list shows a part of the results.
target: Galactocerebrosidase (Homo sapiens) (UniProt P54803); test: A Novel Cell-Based Assay to Identify Small Molecules for B -Galactocerebrosidase; conditions: 145M-Twi-hGALC-G270D cells, HMU-beta-Gal fluorescence, 48 h; series mostly up to 57.5 µM; activation: at the top concentration; note: 0% is about no effect; nearly all actives have a fitted effect of over 65% in size
In short: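 qHTS, 1536-well; 145M-Twi-hGALC-G270D cells (WT line also made) in DMEM/F12 + 10% FBS; compound incubation on live cells; HMU-β-gal 0.1 mM final, pH 5.2, NaTC; carbonate stop; fluorescence increase = enhanced residual activity.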

Sequence of UniProt P54803 (P54803 whole entry, looked up): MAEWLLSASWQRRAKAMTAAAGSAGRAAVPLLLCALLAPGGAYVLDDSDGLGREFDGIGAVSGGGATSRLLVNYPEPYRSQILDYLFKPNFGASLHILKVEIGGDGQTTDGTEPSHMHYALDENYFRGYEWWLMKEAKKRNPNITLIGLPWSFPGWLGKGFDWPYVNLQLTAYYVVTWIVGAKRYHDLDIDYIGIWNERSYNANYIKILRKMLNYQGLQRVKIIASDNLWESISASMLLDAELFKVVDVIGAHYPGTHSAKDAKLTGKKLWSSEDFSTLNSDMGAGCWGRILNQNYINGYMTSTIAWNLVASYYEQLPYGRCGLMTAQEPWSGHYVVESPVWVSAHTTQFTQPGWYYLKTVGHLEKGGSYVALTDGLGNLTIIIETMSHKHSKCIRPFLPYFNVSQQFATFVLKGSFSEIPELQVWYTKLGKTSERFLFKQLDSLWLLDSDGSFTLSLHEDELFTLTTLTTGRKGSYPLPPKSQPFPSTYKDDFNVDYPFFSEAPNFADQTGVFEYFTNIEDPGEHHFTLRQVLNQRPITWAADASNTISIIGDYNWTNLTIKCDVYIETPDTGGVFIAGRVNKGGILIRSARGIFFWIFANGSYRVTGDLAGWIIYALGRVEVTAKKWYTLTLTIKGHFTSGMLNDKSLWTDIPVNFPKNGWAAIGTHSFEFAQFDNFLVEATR

activation, inactive:
Cc1ccc(C(=O)CC2(O)C(=O)N(Cc3ccccc3F)c3ccccc32)cc1 (stereo unspecified) -12.4%
Cc1ncc([N+](=O)[O-])n1CCO -3.08%
CCOC(=O)c1c(NC(=O)/C=C/c2ccc(C(C)C)cc2)sc2c1CCC2 -8.04%
Cc1ccc(NC(=O)Nc2nnc(N3CCCC3)s2)cc1 -11.2%
Cn1cnc(S(=O)(=O)N2CCC(C(=O)NCc3ccccc3Cl)CC2)c1 -12.7%
CCN(c1ccccc1)c1nnc(NC(=O)Nc2ccc(Br)cc2)s1 -10.3%
C[C@@]12C(=O)OC(=O)[C@]1(C)C1CCC2O1 -8.7%
CCOc1ccc(CCNc2ncnc3onc(-c4ccc(Cl)cc4)c23)cc1OCC 6.39%
CCc1ccc(OC(C)c2nc(-c3ccc(-n4cccc4)cc3)no2)cc1 (stereo unspecified) -29.1%
CNS(=O)(=O)c1cn(CC(=O)N2CCN(c3ccccc3F)CC2)cc1S(=O)(=O)NC 2.61%
COC(=O)Nc1nc2ccc(C(=O)C3CC3)cc2[nH]1 -12.8%
Cc1ccc(CN(Cc2ccco2)C(=O)COc2ccccc2C)cc1 -6.81%
CCOC(=O)c1ccc(NC(=O)CCc2c(C)nc3c(c(C)nn3-c3ccccc3)c2C)cc1 -19.4%
COc1cccc(C2=C(C(C)=O)Sc3nncn3N2C(C)=O)c1 -18.2%
OC(CCN1CCCCC1)(c1ccccc1)C1CC2C=CC1C2 (stereo unspecified) -9.76%
COc1ccc(NC(=O)C(c2ccc(C)cc2)N(C)C(=O)/C=C\c2ccc3c(c2)OCO3)cc1 (stereo unspecified) -10.4%
O=S(=O)(NCc1csc(-c2ccccc2)n1)c1cccc(F)c1 -8.56%
CC(=O)c1ccc(NC(=O)CCc2c(C)nc3c(c(C)nn3-c3ccc(C)cc3)c2C)cc1 -11.5%
COc1ccccc1NC(c1ccc(Cl)cc1)c1nnc(-c2cccc(F)c2)o1 (stereo unspecified) -10.1%
O=C(Cn1c(SCc2cccc(F)c2)nc2cccnc21)Nc1ccc(F)c(Cl)c1 -5.28%
O=C(COc1ccccc1Cl)Nc1cc(-c2ccccc2F)nn1-c1ccccc1 -3.88%
CC(C)(C)c1ccc(Cn2c(Cc3ccccc3)nc3ccccc32)cc1 -20.1%
Cc1nn2c(=O)cc(CN(C)c3ccccc3)nc2s1 -7.6%
CCOc1ccc(-c2nonc2NC(=O)c2oc3ccc(F)cc3c2C)cc1 -6.27%
COc1ccc(C2c3c(oc4ccccc4c3=O)C(=O)N2Cc2ccc3c(c2)OCO3)cc1 (stereo unspecified) -14.5%
COC(=O)c1ccccc1NC(=O)C1=CC(c2ccc(C)cc2)=NS(=O)(=O)N1C -6.71%
O=C(CCS(=O)(=O)c1nc(-c2cccs2)cc(C(F)(F)F)n1)Nc1ccc(OC(F)(F)F)cc1 3.59%
Cc1cc(C)cc(NC(=O)CN(c2cc(C(F)(F)F)ccc2Cl)S(=O)(=O)c2ccccc2)c1 -3.8%
COc1cccc(-c2nn(C)c3sc(C(=O)NCc4cc(OC)ccc4OC)cc23)c1 -18.6%
O=C(CN1CCN(Cc2ccc(F)cc2)C1=O)NCc1ccccc1Cl -5.19%
CCN(CC)CCSC(=O)C(c1ccccc1)c1ccccc1 -11.7%
COc1ccc(OC)c(NC(=O)c2cc3c(n(-c4ccc(Cl)cc4)c2=O)CC(C)(C)CC3=O)c1 -13.6%
Cc1nn2c(-c3cccc(NC(=O)c4ccccc4)c3)nnc2c2ccccc12 -20.5%
COc1ccc(CNC(=O)c2ccc(N3CCCC3)c(NC(=O)NCc3ccc(C)cc3)c2)cc1 -19.8%
CC(C)c1ccc(OCC(=O)NC(Cc2c[nH]c3ccccc23)C(=O)O)cc1 (stereo unspecified) -14.9%
CCOC(=O)c1c(C)oc2ccc(N(C(=O)Oc3ccccc3)S(=O)(=O)c3ccc(CC)cc3)cc12 -42.9%
COc1ccc(CCNC(=O)c2ccc3c(c2)N(Cc2c(F)cccc2Cl)C(=O)CS3)cc1OC -7.69%
Cc1cccc(OC(=O)CSc2nnc(CNC(=O)c3ccccc3)o2)c1C -7.56%
O=C(Nc1ccc(F)cc1)c1oc2ccccc2c1NC(=O)C12CC3CC(CC(C3)C1)C2 -3.02%
O=C(Nc1cc(Cl)cc(Cl)c1)c1ccc(F)c(S(=O)(=O)N2CCc3ccccc32)c1 -46.8%
O=C(Cc1ccccc1)N(Cc1cccnc1)c1nc2c(F)cc(F)cc2s1 -34.9%
COc1ccc(-c2cn3c(n2)sc2cc(C(=O)Nc4ccc(C)c(C)c4)ccc23)cc1 -14.2%
COc1ccc(-c2cc(C)no2)cc1S(=O)(=O)N1CCOc2ccccc21 -5.45%
Cc1cccc(N2CCN(C(=O)CCc3nnc4n(CC(C)C)c(=O)c5ccccc5n34)CC2)c1C -17.7%
Cc1ccc(-n2c(SCc3cccc(F)c3)nc3[nH]ncc3c2=O)cc1C -11.7%
COc1cc(OC)c(OC)cc1/C=C/c1nc2cc3ccccc3cc2c(=O)n1-c1ccc(F)cc1F -20.9%
Cc1ccc2c(c1)-c1cc(C)nn1C(c1cc(Br)ccc1O)N2 (stereo unspecified) -12.7%
COc1ccc(C2CC(=O)c3cc(-c4nc(-c5ccc(Cl)cc5)c(C)s4)c(=O)[nH]c3C2)cc1 (stereo unspecified) -13.4%
COc1ccc(NC(=O)C(C)n2nc(-c3ccc(C)c(C)c3)ccc2=O)cc1OC (stereo unspecified) -15.1%
CCc1nnc(SCc2cc(C)ccc2C)c2cc3sc(C)cc3n12 3.7%
COc1cccc(NC(=O)CSC2=Nc3ccccc3C3=NC(CC(=O)NC4CCCCC4)C(=O)N23)c1 (stereo unspecified) -8.87%
CCOC(=O)c1c(C)[nH]c(C)c1S(=O)(=O)N1CCC(C(=O)N2CCN(c3ccccc3F)CC2)CC1 -16.7%
CCc1ccc(CNC(=O)c2ccc(NC(=O)N3CC(C)Sc4ccccc43)cc2)cc1 (stereo unspecified) -5.24%
Cc1cc(C)c2c(=O)cc(C(=O)Nc3ccccc3C(F)(F)F)oc2c1 -17.3%
CC(=O)c1ccc(N2CCN(c3ccc(NC(=O)c4ccc(F)cc4)cc3C(=O)O)CC2)cc1 -11.4%
CC(C)(C)c1ccc(C(=O)NCC(c2cccs2)S(=O)(=O)c2ccccc2)cc1 (stereo unspecified) 0.248%
Cc1cc(NC(=O)CCS(=O)(=O)c2cc3c4c(c2)CCN4C(=O)CC3)ccc1Br -15.2%
O=S(=O)(Nc1nc2n(n1)C(c1ccc(F)cc1)C=C(c1ccccc1)N2)c1ccccc1 (stereo unspecified) -11%
Cc1ccc2ncc(C(=O)Nc3ccc(F)cc3F)c(=O)n2c1 -6.69%
COC(=O)c1ccc2c(=O)n(CCCCCC(=O)NCc3ccc(Cl)cc3)c(=O)[nH]c2c1 -37.4%
O=C(CCS(=O)(=O)c1cc(Br)cc2c1N(C(=O)C1CC1)CC2)NCc1ccc(Cl)cc1 -9.32%

— PubChem BioAssay AID1159614 (National Center for Advancing Translational Sciences (NCATS), 2016)
